According to article PMC7994203:
No constants are given. Whether binding was seen depends on the method and setting.

By UniProt entry, the sequences of proteins in these tests, tags left out.
UniProt Q96B97: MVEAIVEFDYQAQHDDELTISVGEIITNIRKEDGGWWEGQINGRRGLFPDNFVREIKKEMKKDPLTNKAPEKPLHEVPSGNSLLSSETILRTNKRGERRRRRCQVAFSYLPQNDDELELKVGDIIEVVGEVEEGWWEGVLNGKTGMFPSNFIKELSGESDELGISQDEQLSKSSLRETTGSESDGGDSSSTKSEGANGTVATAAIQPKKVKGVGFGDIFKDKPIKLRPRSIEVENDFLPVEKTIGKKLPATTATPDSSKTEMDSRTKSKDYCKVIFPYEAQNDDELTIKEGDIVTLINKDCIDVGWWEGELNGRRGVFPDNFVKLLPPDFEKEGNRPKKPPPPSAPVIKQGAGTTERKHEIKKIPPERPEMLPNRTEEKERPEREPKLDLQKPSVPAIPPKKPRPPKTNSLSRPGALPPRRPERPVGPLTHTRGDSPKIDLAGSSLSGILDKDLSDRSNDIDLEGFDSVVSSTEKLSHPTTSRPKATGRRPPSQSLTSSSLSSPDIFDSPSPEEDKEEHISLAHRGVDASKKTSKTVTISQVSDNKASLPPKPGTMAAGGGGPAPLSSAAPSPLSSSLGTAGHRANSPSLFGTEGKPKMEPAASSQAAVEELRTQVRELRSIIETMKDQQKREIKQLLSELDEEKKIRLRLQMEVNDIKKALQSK

Biological target: GST-CIN85 full-length (UniProt Q96B97)
Assay: SPR; proteins immobilized via an N-terminal GST-tag, peptides as analyte; Biacore T200, steady-state affinity; both purified

With IDSCTYEAMYN [PepC2] the binding was “no binding”.
